The RNAGym collection of RNA variant scans (doi:10.1073/pnas.2313332121)
Variants at the background level are over-represented here.

B1: TPR 5TU (parent)
chain: GGAUCUUCUCGAUCUAACAAAAAAGACAAAUCUGCCACAAAGCUUGAGAGCAUCUUCGGAUGCAGAGGCGGCAGCCUUCGGUGGCGCGAUAGCGCCAACGUUCUCAACUAUGACACGCAAAACGCGUGCUCCGUUGAAUGGAGUUUAUCAUG

Variants of: B1
Experiment: polymerase ribozyme fitness, log enrichment relative to wild type (log ratio); higher = more active; in vitro selection for triplet polymerase activity
Method in brief: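 The heterodimeric triplet polymerase ribozyme's subunits were each mutagenized into PCR-built libraries and transcribed. Every library was selected once, in triplicate, by annealing with a biotinylated primer, the partner subunit and triplets, incubating frozen at −7 °C, gel-excising extended constructs, capturing on streptavidin beads and running RT-PCR. Input and output libraries were Illumina-sequenced, with genotypes kept only at ≥10 input reads and ≥1 read per output. Fitness, from inverse-variance-weighted replicate averages, is the base-2 logarithm of genotype enrichment over wild-type enrichment.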

Polymerase ribozyme fitness (log ratio), ≤ -4.2:
GGAUCUUCUCGAUCUAACAAAAAAGACGAAUCUGCCACAAAGCUUGAGAACAUCUUCGGAUGCAGAGGCGGCAGUCUUCGGUGGCGCGAUCGAGCCAACGUUCUCAACAAUGACACGCAAAACGCGUGCUCCGUUGAAUGGAGUUUAUCAUG [A28G G50A C75U A91C C93A U109A]
GGAUCUUCUCGAUCUAACAAAAAAGACGAAUCUGCCACAAAGCUUGAGAACAUCUUCGGAUGCAGAGGCGGCAGUCUUCGGUGGCGCGAUAUCGCCAACGUUCUCAACCAUGACACGCAAAACGCGUGCUCCGUUGAAUGGAGUUUAUCAUG [A28G G50A C75U G92U U109C]
GGAUCUUCUCGAUCUAACAAAAAAGACGAAUCUACCACAAAGCUUGAGAGCAUCUUCGGAUGCAGAGUCGGCAGCCUUCGGUGGCGGGAUAGCGCCAACGUUCUCAACUAUGACACGCAAAACGCGUGCUCCGUUGAAUGGAGUUUAUCAUG [A28G G34A G68U C87G]
GGAUCUUCUCGAUCUAACAAAAAAGACGAAUCUGCCACAAAGCUUGAGAGCAUCUUCGGAUGCAGAGGCGGCAGCCUUCGGUGGCGCGAUAGCGCCAACGUUCUCAACUAUGACGCGCAAAACACGUGCUCCGUUGAAUGGAGUUUAUCAUG [A28G A115G G124A]
GGAUCUUCUCGAUCUAACAAAAAAGACGAAUUUGCCACAACGCUUGAGAGCAUCUUCGGAUGCAGAGGCGGAAGCCUUCGGUGGCGCGAUAGCGCCAACGUUCUCUACUAUGACACGCAAAACGCGUGCUCCGUUGAAUGAAAUUUAUCAUG [A28G C32U A41C C72A A106U G141A G143A]
GGAUCUUCUCGAUCUAACAAAAAAGACGAAUCUGCCACAAAGCUUGAGAGCAUCUUCGGAUGCAGAGGCGGCAGCCUUCGGUGGCGCGAUAGCGCCAACGUUUUCAACUAUGACUCGCAAAACGCGUGCUCCGUUGAAUGGAGUUCAUCAUG [A28G C103U A115U U146C]
GGAUCUUCUCGAUCUAACAAAAAAGACGAAUCUGCCACAAAGCUUGUGAGCAUCAUCGGAUGCAGAGGCGGCAAAGUUCGGUGCCGCGAUAGCGCCAACGUUCUCAACUAUGACACGCAAAACGCGUGCUCCGUUGAAUGGAGUUUAUCAUG [A28G A47U U55A G74A C75A C76G G84C]
GGAUCUUCUCGAUCUAACAAAAAAGACGAAUCUGCCACUAAGCUUGAGAGCAACUUCGGAUGCAGAGGCGACAGCCUUCGGUGGCGCGAUAGAGCCAACGUUCUCAACUAUGACACGCAAAACGCGUGCUCCGUUGAAUGGAGUUUAUCAUG [A28G A39U U53A G71A C93A]
GGAUCUUCUCGAUCUAACAAAAAAGACGAAUUUGCCACAAAGCUUGAGAACAUCUUCGGAUGCAGAGGCGGCAGCCUUCGGUGGAGCGAUAGCGCCAACGUUCUCAACUAUGACACGCAAAACGCGUGCUCCGUUGAAUGGAGUUUAUCAUG [A28G C32U G50A C85A]
GGAUCUUCUCGAUCUAACAAAAAAGACGAAUCUGCCAGAAAGCUUGAGAGCAUCGUCUGAUGCAGAGGCGGCAGCCUUCGGUGGCGCGAUAGCGCCAACGUUCUCAACUAUGACACGCAAAACGCGUGCUCCGUUGAAUGGAGUUUAUCAUG [A28G C38G U55G G58U]
GGAUCUUCUCGAUCUAACAAAAAAGACGAAUCUGACACAAAUCUUGAGAGCAUCUUCGGAUGCAGAGCCGGCAGACUUCGGUGGCGCGAUAGCGCCAACGUUCUCAACUAUGACACGCAAAACGCGGACUCCGUUGAAUGGAGUUUAUCAUG [A28G C35A G42U G68C C75A U127G G128A]
GGAUCUUCUCGAUCUAACAAAAAAGACGAAUCUGUCACAAAGCUUGAAAUCAUCUUCGGAUGUAGAGGCGGCAGCCUUCGGUGAGGCGAUAGCACCAACGGCCUCAACUAUGACACGCAAAACGCGUGCUCCGGUGAAUGGAGUUCAUCAUG [A28G C35U G48A G50U C63U G84A C85G G94A U101G U102C U134G U146C]
GGAUCUUCUCGAUCUAACAAAAAAGACGAAUCUGCCACAAAGCUUGAGAGCAUCUUGGGAUGCAGAGGCGGCAGCCUUCGGUGGAGCGAUAGCGCCAACGUUCUCAACUAUGACACGAAAAACGCGUGCUCCGUUGAAUGGAGUUUAUCAUG [A28G C57G C85A C118A]
GGAUCUUCUCGAUCUAACAAAAAAGACGAAUCUGCCACAAUGCUUGAGAGCAUCUUCGGAUGCCGAGGCGGCAGCCUUCGGUGGCGCGAUAGCGCCAUCGUUCUCAACUAUGACACGCAAAACGCGUGCUCCGUUGAAUGUAAUUUAUCAUG [A28G A41U A64C A98U G141U G143A]
GGAUCUUCUCGAUCUAACAAAAAAGACGAAUCUGCCACAAAGCUUGAGACCAUCUACGGAUGCAGAGGCGGCAGCCUUCGGCGGCGCGAUAGCGCCAACGUGCUCAACUAUGACACGCAAAACGCGUGCUCCGUUGAAUGGAGUUUAUCAUG [A28G G50C U56A U82C U102G]
GGAUCUUCUCGAUCUAACAAAAAAGACGAAUCUGCCACACAGCUUGAGAGCAUCUUCGCAUGCAGAGGCGGCAGCCUUCGGUGGCGCGAUAGCGCCAAAGUUCUCAACCAUGACACGCAAAACGCGUGCUCCGUUGAAUGGAGUUUAUCAUG [A28G A40C G59C C99A U109C]
GGAUCUUCUCGAUCUAACAAAAAAGACGAAUCUGCCACACAGCUUGAGAGCAUCUUCGGAUGCAGAGGCGGCAGACUUCGGUGGCACGAUAGCGCCAACGUUCUCAACUAUGACACGCAAAACGCGUGCUCCGUUGAAUGGAGUUUAUCAUG [A28G A40C C75A G86A]
GGAUCUUCUCGAUCUAACAAAAAAGACGAAUCUGCUACAAAGCUAGAGAGCAUCUUCGGAUGCAGAGGCGGCAGCCUUCGGUGGCGCGUUAGCGCCAACGUUCUCAAGUAUGACACGCAAAACGCGUGCUCCGUUGAAUGGAGUUUAUCAUG [A28G C36U U45A A89U C108G]
GGAUCUUCUCGAUCUAACAAAAAAGACGAAUCUGCCACAAAGCUUGAGCGAAUCUUCGGAUGCCGCGGCGGCAGCCUUCGGUGGCGGGAGAGCGCCAACGUUCUCAACUAUGACACGCAAAACGCGUGCUCCGUUGAAUGGAGUUUAUCAUG [A28G A49C C51A A64C A66C C87G U90G]
